# Measured values reported in a collection of fitness landscapes (doi:10.1126/science.1257360).
# The other results are listed elsewhere or left out.
# B1: PhoQ; a variant is named by its letters at X, in order, P23837 (parent)
# chain: MKKLLRLFFPLSLRVRFLLATAAVVLVLSLAYGMVALIGYSVSFDKTTFRLLRGESNLFYTLAKWENNKLHVELPENIDKQSPTMTLIYDENGQLLWAQRDVPWLMKMIQPDWLKSNGFHEIEADVNDTSLLLSGDHSIQQQLQEVREDDDDAEMTHSVAVNVYPATSRMPKLTIVVVDTIPVELKSSYMVWSWFIYVLSANLLLVIPLLWVAAWWSLRPIEALAKEVRELEEHNRELLNPATTRELTSLVRNLNRLLKSERERYDKYRTTLTDLTHSLKTPLXXLQXXLRSLRSEKMSVSDAEPVMLEQISRISQQIGYYLHRASMRGGTLLSRELHPVAPLLDNLTSALNKVYQRKGVNISLDISPEISFVGEQNDFVEVMGNVLDNACKYCLEFVEISARQTDEHLYIVVEDDGPGIPLSKREVIFDRGQRVDTLRPGQGVGLAVAREITEQYEGKIVAGESMLGGARMEVIFGRQHSAPKDE
# Variants of: B1
# Experiment: enrichment ratio after two sorts for PhoP signalling (ratio (wild type AVST 3.29)); higher = more functional
# Settings: with PhoP (E. coli)
row,Variant,enrichment ratio
1,TNNP,≤ 0.25
2,KAEE,≤ 0.25
3,QMPT,≤ 0.25
4,DLDQ,≤ 0.25
5,YQMT,0.333
6,AWNT,≤ 0.25
7,TPQE,≤ 0.25
8,GQHL,≤ 0.25
9,NRMV,≤ 0.25
10,GQVC,0.594
11,VCER,≤ 0.25
12,TILQ,1.33
13,YVEW,≤ 0.25
14,TTIP,≤ 0.25
15,QCYH,≤ 0.25
16,RFMG,≤ 0.25
17,QGQI,≤ 0.25
18,IFIV,≤ 0.25
19,TIVW,≤ 0.25
20,IDAF,≤ 0.25
21,DYNF,≤ 0.25
22,HNHW,≤ 0.25
23,SIDM,≤ 0.25
24,DMSK,≤ 0.25

row,Variant,enrichment ratio
1,SFKC,≤ 0.25
2,INQG,≤ 0.25
3,ERQY,≤ 0.25
4,SYWL,≤ 0.25
5,RMQT,≤ 0.25
6,EFDE,≤ 0.25
7,NYSQ,≤ 0.25
8,DITV,≤ 0.25
9,SCCH,2.93
10,IICT,≤ 0.25
11,HQTY,≤ 0.25
12,NDEV,≤ 0.25
13,HTGA,≤ 0.25
14,MACK,≤ 0.25
15,TLEH,≤ 0.25
16,TVTT,6.02
17,IQMM,≤ 0.25
18,DGQR,≤ 0.25
19,WKCF,≤ 0.25
20,ENIC,≤ 0.25
21,PTNL,≤ 0.25
22,QAFN,8.51
23,YAQR,≤ 0.25
24,SAKE,≤ 0.25

row,Variant,enrichment ratio
1,KVCN,≤ 0.25
2,RRIH,≤ 0.25
3,IVNT,≤ 0.25
4,MGNC,≤ 0.25
5,AKGL,5.13
6,KEYL,≤ 0.25
7,QVCV,≤ 0.25
8,IPEQ,≤ 0.25
9,KAGL,≤ 0.25
10,VSVG,≤ 0.25
11,HNPS,≤ 0.25
12,TMEA,≤ 0.25
13,QMQV,≤ 0.25
14,QYTV,≤ 0.25
15,PNQK,≤ 0.25
16,WSPP,≤ 0.25
17,EACP,≤ 0.25
18,QQHA,≤ 0.25
19,TYHN,≤ 0.25
20,HIMF,≤ 0.25
21,IWSI,≤ 0.25
22,YCMM,≤ 0.25
23,QEQN,≤ 0.25
24,YLDP,≤ 0.25

row,Variant,enrichment ratio
1,IMLN,≤ 0.25
2,QHEI,≤ 0.25
3,NQKI,≤ 0.25
4,FCRH,≤ 0.25
5,HIIW,≤ 0.25
6,LHES,≤ 0.25
7,DGVY,≤ 0.25
8,WKHD,≤ 0.25
9,LWPI,≤ 0.25
10,GWWL,≤ 0.25
11,LWQE,≤ 0.25
12,LDFT,≤ 0.25
13,DCDT,≤ 0.25
14,SVHI,≤ 0.25
15,QQHV,≤ 0.25
16,QNKT,≤ 0.25
17,PDVV,≤ 0.25
18,EVAI,≤ 0.25
19,AVWL,≤ 0.25
20,TPMT,≤ 0.25
21,YLWE,≤ 0.25
22,EVWY,≤ 0.25
23,AWYM,≤ 0.25
24,RCIL,≤ 0.25

row,Variant,enrichment ratio
1,WWMK,≤ 0.25
2,EYKG,≤ 0.25
3,IHHR,≤ 0.25
4,PYME,≤ 0.25
5,LGTL,≤ 0.25
6,ALQI,≤ 0.25
7,NSMQ,≤ 0.25
8,HDCV,≤ 0.25
9,WWPQ,≤ 0.25
10,NPLW,≤ 0.25
11,VRCT,≤ 0.25
12,IISR,≤ 0.25
13,TYSF,≤ 0.25
14,WMPW,≤ 0.25
15,FKTS,≤ 0.25
16,FFNK,≤ 0.25
17,AATF,4.74
18,ERTP,≤ 0.25
19,SRKY,≤ 0.25
20,HEMF,≤ 0.25
21,PYGR,≤ 0.25
22,TNVV,≤ 0.25
23,IPCP,≤ 0.25
24,GDHY,≤ 0.25

row,Variant,enrichment ratio
1,ICIR,≤ 0.25
2,LPIH,≤ 0.25
3,RITV,≤ 0.25
4,FEEM,≤ 0.25
5,SMNI,≤ 0.25
6,NAVK,≤ 0.25
7,HGAM,≤ 0.25
8,MNCQ,≤ 0.25
9,KWGL,≤ 0.25
10,NGWY,≤ 0.25
11,WVYY,≤ 0.25
12,LANE,≤ 0.25
13,YPGS,≤ 0.25
14,QKEE,≤ 0.25
15,AENL,≤ 0.25
16,QSFQ,7.51
17,QIYF,2.65
18,AIAI,12.7
19,EDCM,≤ 0.25
20,YEHM,≤ 0.25
21,FHMG,≤ 0.25
22,YHWN,≤ 0.25
23,AMCQ,6.16
24,WKPL,≤ 0.25

row,Variant,enrichment ratio
1,PLHK,≤ 0.25
2,SQQT,≤ 0.25
3,PNCA,≤ 0.25
4,FKIS,≤ 0.25
5,FWTW,≤ 0.25
6,SKPE,≤ 0.25
7,KELY,≤ 0.25
8,FFWH,0.871
9,GHEH,≤ 0.25
10,NYKA,≤ 0.25
11,QRVH,≤ 0.25
12,NCDN,≤ 0.25
13,SKEW,≤ 0.25
14,NRVI,≤ 0.25
15,KLAL,≤ 0.25
16,KSAV,≤ 0.25
17,GPEP,≤ 0.25
18,DPCN,≤ 0.25
19,TGCN,42.2
20,FFQW,≤ 0.25
21,KRRL,≤ 0.25
22,LKWG,≤ 0.25
23,WMVD,≤ 0.25
24,FSNP,≤ 0.25

row,Variant,enrichment ratio
1,YAGC,≤ 0.25
2,SISI,19.1
3,DHDT,≤ 0.25
4,DNMQ,≤ 0.25
5,WPVY,≤ 0.25
6,LWQL,≤ 0.25
7,WFYT,≤ 0.25
8,FVPV,≤ 0.25
9,PESV,≤ 0.25
10,RFCV,≤ 0.25
11,QHTP,≤ 0.25
12,WCKQ,≤ 0.25
13,YRGG,≤ 0.25
14,SDWM,≤ 0.25
15,DPFF,≤ 0.25
16,ISFY,≤ 0.25
17,NKNG,≤ 0.25
18,HGVS,≤ 0.25
19,VMVQ,≤ 0.25
20,GKRR,≤ 0.25
21,EARK,≤ 0.25
22,WGGH,≤ 0.25
23,ICFK,≤ 0.25
24,TAGV,5.24

row,Variant,enrichment ratio
1,AWAW,≤ 0.25
2,NNIT,≤ 0.25
3,LYGD,≤ 0.25
4,WDFA,≤ 0.25
5,PKYL,≤ 0.25
6,QQTS,≤ 0.25
7,HVVL,≤ 0.25
8,VWTW,≤ 0.25
9,SAIV,3.88
10,GPWD,≤ 0.25
11,LQIQ,≤ 0.25
12,MIYI,24.3
13,LYYR,≤ 0.25
14,QVIT,≤ 0.25
15,RFYW,≤ 0.25
16,DTEC,≤ 0.25
17,YFLC,≤ 0.25
18,IDMY,0.903
19,FTFI,≤ 0.25
20,IRET,≤ 0.25
21,DLFL,≤ 0.25
22,WCWC,≤ 0.25
23,TGSG,16.4
24,YRCM,≤ 0.25

row,Variant,enrichment ratio
1,FLMC,0.995
2,DGQG,≤ 0.25
3,SKYI,≤ 0.25
4,DYGC,≤ 0.25
5,HRQG,≤ 0.25
6,WQCM,≤ 0.25
7,PCDH,≤ 0.25
8,EPRH,≤ 0.25
9,ARSP,≤ 0.25
10,RYNW,≤ 0.25
11,FNCT,≤ 0.25
12,CLVT,≤ 0.25
13,NQVD,≤ 0.25
14,YPQA,≤ 0.25
15,DGVG,≤ 0.25
16,IPWT,≤ 0.25
17,YILE,≤ 0.25
18,PTQY,≤ 0.25
19,WNLK,≤ 0.25
20,GFIL,≤ 0.25
21,TKFN,≤ 0.25
22,HYCY,≤ 0.25
23,QGNG,≤ 0.25
24,FKWL,≤ 0.25

row,Variant,enrichment ratio
1,QQRT,≤ 0.25
2,LFNN,≤ 0.25
3,TQIS,2
4,MPKY,≤ 0.25
5,VEWS,2.49
6,VVFC,≤ 0.25
7,VDYL,≤ 0.25
8,DNKH,≤ 0.25
9,SQMF,6.14
10,YSDW,≤ 0.25
11,VEWP,≤ 0.25
12,EPAM,≤ 0.25
13,HKSG,≤ 0.25
14,SMSY,11.4
15,LLIN,≤ 0.25
16,MYYQ,2.46
17,WVVP,0.285
18,REIL,≤ 0.25
19,HHPQ,≤ 0.25
20,PFKP,≤ 0.25
21,HYTQ,≤ 0.25
22,VEVV,2.45
23,AIFF,≤ 0.25
24,IAIR,≤ 0.25

row,Variant,enrichment ratio
1,WEKK,≤ 0.25
2,PVTH,≤ 0.25
3,MSRP,≤ 0.25
4,YESM,≤ 0.25
5,IFFS,≤ 0.25
6,YNVA,≤ 0.25
7,HRNL,≤ 0.25
8,IRIG,≤ 0.25
9,VWLQ,≤ 0.25
10,PYLE,≤ 0.25
11,MPLG,≤ 0.25
12,FGYR,≤ 0.25
13,PLIR,≤ 0.25
14,AYWD,≤ 0.25
15,HPNS,≤ 0.25
16,NRDT,≤ 0.25
17,DMPQ,≤ 0.25
18,KVKA,≤ 0.25
19,RFRK,0.263
20,DFMM,≤ 0.25
21,DKDH,≤ 0.25
22,WIMS,≤ 0.25
23,HLNI,≤ 0.25
24,GIYG,0.319

row,Variant,enrichment ratio
1,HSEH,≤ 0.25
2,VTLA,5.19
3,MPNT,≤ 0.25
4,KIGI,≤ 0.25
5,YVHR,≤ 0.25
6,FGGD,≤ 0.25
7,NFYQ,≤ 0.25
8,IIPN,≤ 0.25
9,YSMH,≤ 0.25
10,VKIF,≤ 0.25
11,NHWT,≤ 0.25
12,NGLV,6.65
13,DIKF,≤ 0.25
14,PAVT,≤ 0.25
15,PVPF,≤ 0.25
16,HTPY,≤ 0.25
17,VSMQ,2.71
18,KGSH,≤ 0.25
